Patent US12338279B2, “Selective and potent inhibitory antibodies of myostatin activation” (SCHOLAR ROCK, INC., priority 2022, dated 2025)

Tests used:
[1] = test system: biotinylated human pro-myostatin; test: Biacore 8k SPR binding affinity, human pro-myostatin
Description: (§1) The Biacore™ 8 k SPR system was utilized to evaluate the binding affinity of myostatin antibodies to biotinylated human, murine, and cyno pro-myostatin. Biotin CAPture kit and sensor chips (Cytiva) were utilized in these experiments to immobilize the various antigens, followed by flowing a range of concentrations of each of the test antibodies.

[2] = AC-SINS self-interaction (aggregation behavior); assay type: physicochemical; conditions: cutoff shift >5 nm in plasmon wavelength
How it was run: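 Antibodies captured on gold nanoparticles coated with polyclonal anti-human-mAb antibodies; self-association shifts the plasmon absorbance maximum toward red. Value reported as plasmon wavelength, with 530 nm as unaggregated reference; shift >5 nm taken as self-interacting.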

[3] = test system: male C57/BL6 mice on high fat diet; test: Diet-induced obesity model, semaglutide with Ab109 or Ab141 (Example 5); assay type: in vivo, mouse; conditions: antibody once weekly plus 0.040 mg/kg semaglutide daily, three weeks; FIGS. 13A-B
Method: Male C57/BL6 mice were a high-fat diet containing 60% fat then switched to a diet containing 45% fat. […] Body weight and body composition determined by qNMR were recorded at days 7, 14, and 21 after dosing. Gastrocnemius weight, inguinal, and perigonadal fat pad weights were recorded at the end of the study. Liver and terminal blood were collected to measure the levels of glucose and insulin.

[4] = test system: biotinylated murine pro-myostatin; test: Biacore 8k SPR binding affinity, murine pro-myostatin; parameters: species or system mouse
Description: as §1

[5] = molecular target: T1, biotinylated cyno pro-myostatin (Macaca fascicularis, UniProt Q95J86); test: Biacore 8k SPR binding affinity, cyno pro-myostatin; parameters: species or system cynomolgus monkey
T1 construct: biotin (label)
Description: as §1

[6] = test system: total myostatin in serum; test: Total serum myostatin (PD) in obese mice with or without semaglutide (Example 8); assay type: in vivo, mouse; conditions: 0.1 to 3 mg/kg, alone or with semaglutide; FIG. 16B
Method: (§2) Male 19 week old C7/BL6 mice fed a high fat diet to induce obesity (DIO-B6-M mice, were evaluated for the effect of the combination of antibody and semaglutide on the exposure of the antibody to the target antigen (PK) and the total myostatin serum level (PD), as shown in Table 25. Animals were dosed with antibody intraperitoneally on days 0, 7, and 14 and were dosed with semaglutide subcutaneously daily throughout the study. Exposure of the antibody to immobilized promyostatin was determined by ELISA. Total serum myostatin was also measured by ELISA. The study concluded on day 22, when terminal bleeds were obtained.

[7] = test system: free latent myostatin in serum; test: Serum free latent myostatin (not bound by antibody); assay type: in vivo, mouse; conditions: 0.1 to 3 mg/kg, 22 days, presence or absence of semaglutide; FIG. 16C
Description: Serum clearance: As used herein, the term “serum clearance” or “clearance” refers to a relative pharmacokinetic/pharmacodynamic behavior pertaining to changes in serum concentrations (e.g., circulating levels) of an analyte (e.g., target protein or protein complex) over time. When the analyte being measured accumulates in the serum, it is said to have slow clearance. By contrast, when the analyte being measured is removed (“cleared”) rapidly from the serum, it is said to have fast clearance. Serum clearance in vivo may occur via multiple mechanisms, including, for example, targeted degradation, Fc-mediated internalization, etc. For example, serum clearance of circulating myostatin may be measured with an assay for determining binding of an antibody to free myostatin in serum (circulating myostatin that is not bound by the antibody). Such an assay may involve immobilizing a biotinylated capture antibody known to bind pro and latent myostatin, before adding a sample comprising myostatin to test the ability of the antibody to bind to the free myostatin and adding a detection antibody with a detectable marker.
In another embodiment, a pharmacodynamic assay, can be performed by measuring the binding of the antibodies to serum free latent myostatin (i.e., circulating latent myostatin that is not bound by the antibody). […]
as §2

[8] = test system: total myostatin in serum; test: Circulating total myostatin in serum (acidification ELISA), dexamethasone model; assay type: in vivo, mouse; conditions: as compared to apitegromab
Description: Briefly, serum samples were acidified at low pH (e.g., pH ˜2.5) to dissociate the bound antibody from the immune complex and to convert all myostatin in the sample to the active form of growth factor (i.e., mature myostatin). Samples were then neutralized and assayed for the presence of mature myostatin on ELISA plates coated with anti-mature myostatin antibodies as capture reagents.

[9] = test system: Pro + Furin (pro-myostatin); test: Functional ELISA: inhibition of myostatin activation, Pro + Furin; assay type: biochemical; conditions: Table 8
Method: To measure inhibitory potency of the novel antibodies against myostatin activation, an ELISA-based in vitro potency assay (“functional ELISA”) was carried out. First, each of the test antibodies was preincubated with recombinant human latent myostatin to let immune complexes form. Subsequently, mTLL-2 was added to the immune mixture to trigger the release of mature myostatin by proteolytic cleavage. If the test antibody is capable of blocking mTLL-2-induced activation, mature myostatin is not released from the latent myostatin complex. […] Following mTLL-2 treatment, the amount of free (released) mature myostatin in the presence of test antibodies was measured by ELISA, in which the plates were coated with ActRII-Fc fusion protein, which is a ligand trap serving as the capture reagent. Free mature myostatin present in the assay mixture was captured on the ELISA plate, and the amount of bound mature myostatin was measured by biotin-streptavidin-based detection reagents in 11 data points.

Row | Molecule | Ka [1] [M⁻¹ s⁻¹] | Kd (1/s) [1] [s⁻¹] | aggregation behavior by AC-SINS [2] | fat mass loss (subcutaneous and epididymal adipose tissue weight) [3] | Ka [4] [M⁻¹ s⁻¹] | Kd (1/s) [4] [s⁻¹] | Ka [5] [M⁻¹ s⁻¹] | Kd [5] [s⁻¹] | serum total myostatin (PD) [6] | serum free latent myostatin (not bound by antibody) [7] | accumulation of total or latent myostatin in serum samples from dosed subjects [8] | IC50 [9] [nM] | Kd [1] [nM] | Ka (1/Ms) [5]
1 | Ab141: anti-pro/latent myostatin antibody; CDRs in Tables 2d-f, variable domains Table 3, chains Table 4 (antibody) heavy: EVQLVESGGGLVQPGGSLRLSCAASGFTFSSYGMSWVRQAPGKGLELVASFTGSGGAYYPDSVKGRFTISRDNAKNSLYLQMNSLRAEDTAVYYCARDLLIRFLEWSHYYGMDVWGQGTTVTVSSASTKGPSVFPLAPCSRSTSESTAALGCLVKDYFPEPVTVSWNSGALTSGVHTFPAVLQSSGLYSLSSVVTVPSSSLGTKTYTCNVDHKPSNTKVDKRV[human IgG4 Fc with S228P (EU numbers) left out] light: DIVMTQSPLSLPVTPGEPASISCRSSQSLLHSSGHNFLHWYLQKPGQSPQLLIYEVSNRVSGVPDRFSGSGSGTDFTLKISRVEAEDVGVYYCMQQTQYPGTFGGGTKVEIKRTVAAPSVFIFPPSDEQLKSGTASVVCLLNNFYPREAKVQWKVDNALQSGNSQESVTEQDSKDSTYSLSSTLTLSKADYEKHKVYACEVTHQGLSSPVTKSFNRGEC | 2.79e+06 | 0.000112 | did not display aggregation behavior | increased fat mass loss as compared to Ab109 or Ab141 alone | 2.93e+06 | 0.000156 | 2.8e+06 | 0.000103 | not affected by the presence of semaglutide | reduced below the level of quantitation | reduced accumulation of circulating latent myostatin |  |  | 
2 | Ab125: anti-pro/latent myostatin antibody; CDRs in Tables 2d-f, variable domains Table 3, chains Table 4 (antibody) heavy: EVQLVQSGAEVKKPGESLKISCKGSGNRISDYWMNWVRQVPGKGLEWMGNIYPGYSDATYNRKFKGQVTISADKSISTAYLQWSSLKASDTAIYYCARGRDGYNYFAAFDIWGQGTMVTVSSASTKGPSVFPLAPCSRSTSESTAALGCLVKDYFPEPVTVSWNSGALTSGVHTFPAVLQSSGLYSLSSVVTVPSSSLGTKTYTCNVDHKPSNTKVDKRV[human IgG4 Fc with S228P (EU numbers) left out] light: EIVLTQSPATLSLSPGERATLSCRASQSVASSYLAWYQQKPGQAPRLLIYDTSSRAAGIPARFSGSGSGTDFTLTISSLEPEDFAVYYCHQYGSSLTTFGGGTKVEIKRTVAAPSVFIFPPSDEQLKSGTASVVCLLNNFYPREAKVQWKVDNALQSGNSQESVTEQDSKDSTYSLSSTLTLSKADYEKHKVYACEVTHQGLSSPVTKSFNRGEC | 3.58e+06 | 0.000371 |  |  | 3.29e+06 | 0.000411 |  |  |  |  |  | 0.318 | 0.103 | 4.01 E+06 1/Ms
3 | Ab124: anti-pro/latent myostatin antibody; CDRs in Tables 2d-f, variable domains Table 3, chains Table 4 (antibody) heavy: QVQLQESGPGLVKPSQTLSLTCTVSGGSISSSPYSWSWIRQPPGKGLEWIGYVDLAGSTDYNPSLKSRVTMSVDTSKNQFSLKVNSVTAADTAVYYCARALSSRSSEWLLDQYTMDVWGQGTTVTVSSASTKGPSVFPLAPCSRSTSESTAALGCLVKDYFPEPVTVSWNSGALTSGVHTFPAVLQSSGLYSLSSVVTVPSSSLGTKTYTCNVDHKPSNTKVDKRV[human IgG4 Fc with S228P (EU numbers) left out] light: EIVMTQSPATLSLSPGERATLSCRASQSIGINLAWYQQKPGQAPRLLIYGVSNRATGIPARFSGSGSGTDFTLTISSLEPEDFAVYYCQQYGTARLTFGGGTKVEIKRTVAAPSVFIFPPSDEQLKSGTASVVCLLNNFYPREAKVQWKVDNALQSGNSQESVTEQDSKDSTYSLSSTLTLSKADYEKHKVYACEVTHQGLSSPVTKSFNRGEC | 1.54e+06 | 0.000285 |  |  | 139000 | 0.000454 |  |  |  |  |  | 1.08 | 1.84 | 
